In patent US10023601B2, “Hydrolysis resistant sialic acid derivatives and methods for their use” (The University of British Columbia, priority 2014, dated 2018):

Assays:
Cst-I [1] = target: T1, Cst-I (Campylobacter jejuni, UniProt Q9RGF1); type: biochemical, C. jejuni
Cst-I [2] = target: T1, Cst-I
Pm0188h = target: T2, Pm0188h (Pasteurella multocida, UniProt Q15KI8); test: Sialyltransferase kinetics, CMP release assay, transfer to lactose by Pm0188h; conditions: for kcat: donor substrate, transfer to lactose, 37° C., pH 8.5
T2 sequence (Q15KI8 26-412): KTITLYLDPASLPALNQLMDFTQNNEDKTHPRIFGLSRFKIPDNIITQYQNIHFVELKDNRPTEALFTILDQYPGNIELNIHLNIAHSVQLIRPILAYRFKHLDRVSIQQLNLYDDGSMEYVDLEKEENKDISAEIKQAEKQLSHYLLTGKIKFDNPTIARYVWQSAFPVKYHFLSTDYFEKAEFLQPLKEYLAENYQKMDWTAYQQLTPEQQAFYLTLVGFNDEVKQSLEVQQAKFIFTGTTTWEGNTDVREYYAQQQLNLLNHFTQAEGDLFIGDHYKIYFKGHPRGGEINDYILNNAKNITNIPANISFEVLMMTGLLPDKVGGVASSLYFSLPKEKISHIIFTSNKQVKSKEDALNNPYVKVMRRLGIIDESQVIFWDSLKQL

Pasteurella enzyme = Pasteurella enzyme (Pasteurella multocida, UniProt Q15KI8)

T1 sequence (Q9RGF1 1-285 limits assumed): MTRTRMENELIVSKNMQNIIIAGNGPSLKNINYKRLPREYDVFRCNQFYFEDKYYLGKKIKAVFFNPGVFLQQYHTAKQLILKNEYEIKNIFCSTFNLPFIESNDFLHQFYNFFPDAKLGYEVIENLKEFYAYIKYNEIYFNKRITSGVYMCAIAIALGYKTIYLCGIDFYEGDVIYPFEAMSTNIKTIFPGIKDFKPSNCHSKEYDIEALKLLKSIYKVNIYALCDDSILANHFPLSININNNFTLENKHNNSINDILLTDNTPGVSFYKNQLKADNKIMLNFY

## CC(=O)N[C@H]1[C@H]([C@H](O)[C@H](O)CO)O[C@](OP(=O)(O)OC[C@H]2O[C@@H](n3ccc(N)nc3=O)[C@H](O)[C@@H]2O)(C(=O)O)C[C@@H]1O [compound 16, CMP-NeuNAc, reference compound]
Cst-I [1]
  transfer of donor to BODIPY-lactose (TLC): complete transfer
Cst-I [2]
  enzymatic coupling to aryl β-galactosides (oNP, MU): worked well
Pm0188h
  kcat: 182 s⁻¹

## CC(=O)N[C@H]1[C@H](C(F)(F)[C@H](O)CO)O[C@](OP(=O)(O)OC[C@H]2O[C@@H](n3ccc(N)nc3=O)[C@H](O)[C@@H]2O)(C(=O)O)C[C@@H]1O [compound 15, 5-Acetamido-3,5,7-trideoxy-2-(hydrogen 5′-cytidylate)-7,7-difluoro-D-glycero-b-D-galacto-2-nonulopyranosidic acid diammonium salt]
Cst-I [1]
  completion of transfer to BODIPY-lactose (TLC): around 20%
Cst-I [2]
  enzymatic coupling to aryl β-galactosides (oNP, MU): no transfer products were observed
Pm0188h
  fold slower transfer than the natural donor: ~20 fold
  kcat: 10.0 s⁻¹
Pasteurella enzyme
  enzymatic coupling to aryl β-galactosides (oNP, MU): Nor were any products obtained

## CC(=O)N[C@H]1[C@H]([C@H](F)[C@H](O)CO)O[C@](OP(=O)(O)OC[C@H]2O[C@@H](n3ccc(N)nc3=O)[C@H](O)[C@@H]2O)(C(=O)O)C[C@@H]1O [compound 14, 5-Acetamido-3,5,7-trideoxy-2-(hydrogen 5′-cytidylate)-7-fluoro-D-glycero-b-D-galacto-2-nonulopyranosidic acid diammonium salt]
Cst-I [1]
  transfer of donor to BODIPY-lactose (TLC): complete transfer
Cst-I [2]
  enzymatic coupling to aryl β-galactosides (oNP, MU): worked well
Pm0188h
  kcat: 99 s⁻¹

Where a name gives a salt, the structure may show the parent alone.
